Measured values reported in the supplement of paper PMC8007513.
Structures can show the parent of a compound that is named as a salt. ± gives the standard error. Among all 1,300 compounds or so, about 75 (6%) showed an effect of 50% or more. The list shows a part of the results.

Tested on: Trichoderma virens ATCC 9645
Assay: growth yield (OD600) relative to untreated control; higher = less growth inhibition
Conditions: compound concentration: 100 uM
Procedure, shortened: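 Library compounds (100 μM final), with or without a co-applied biocide (200 ng ml^−1), were added to 100 μl aliquots of Trichoderma virens ATCC 9645 spores at 15,000 spores ml^−1 in potato dextrose broth. Cultures were grown at 30 °C in 96-well plates, and OD600 was measured at 40 h and 72 h. Each growth value is a mean of duplicate screens, expressed relative to the control with neither agent.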

Cc1ncc(C[n+]2csc(CCO)c2C)c(N)n1 [Thiamine hydrochloride]
growth yield (40 h): 98 ± 0.16%
growth yield (72 h): 95.75 ± 0.94%

CC(C)c1c(C(=O)Nc2ccccc2)c(-c2ccccc2)c(-c2ccc(F)cc2)n1CC[C@@H](O)C[C@@H](O)CC(=O)O [Atorvastatin]
growth yield (40 h): 106%
growth yield (72 h): 85.1 ± 10%

CC(=O)OCC(=O)[C@@]1(O)CC[C@H]2[C@@H]3CCC4=CC(=O)CC[C@]4(C)[C@H]3[C@@H](O)C[C@@]21C [Cortisol acetate]
growth yield (40 h): 98.2 ± 4.8%
growth yield (72 h): 96.2 ± 2%

CCN[C@H]1CN(CCCOC)S(=O)(=O)c2sc(S(N)(=O)=O)cc21 [Brinzolamide]
growth yield (40 h): 96.1 ± 2.4%
growth yield (72 h): 98.5 ± 4.3%

CC(=O)OCC(=O)NCCCOc1cccc(CN2CCCCC2)c1 [Roxatidine Acetate hydrochloride]
growth yield (40 h): 100%
growth yield (72 h): 102%

CCn1cc(C(=O)O)c(=O)c2cc(F)c(N3CCNCC3)nc21 [Enoxacin]
growth yield (40 h): 95.6 ± 3.5%
growth yield (72 h): 97.3 ± 3.4%

CCCc1ncc(C[n+]2ccccc2C)c(N)n1 [Amprolium hydrochloride]
growth yield (40 h): 97.1 ± 4%
growth yield (72 h): 98.2 ± 2.7%

Oc1ccc(C2CNCCc3c2cc(O)c(O)c3Cl)cc1 (configuration not stated) [Fenoldopam]
growth yield (40 h): 100 ± 2.7%
growth yield (72 h): 97 ± 1.6%

CC(C(=O)O)c1cccc(Oc2ccccc2)c1 (configuration not stated) [Fenoprofen calcium salt dihydrate]
growth yield (40 h): 97.5 ± 10%
growth yield (72 h): 97.7 ± 13%

CS(=O)(=O)c1ccc([C@@H](O)[C@@H](CF)NC(=O)C(Cl)Cl)cc1 [Florfenicol]
growth yield (40 h): 92.3 ± 4.3%
growth yield (72 h): 92.61 ± 0.52%

CCN(CC)CCCC(C)Nc1ccnc2cc(Cl)ccc12 (configuration not stated) [Chloroquine diphosphate]
growth yield (40 h): 99.75 ± 0.64%
growth yield (72 h): 103 ± 0.21%

Nc1ccc(S(=O)(=O)NC(=O)c2ccccc2)cc1 [Sulfabenzamide]
growth yield (40 h): 95.6 ± 2.2%
growth yield (72 h): 95.8 ± 1.1%

C=C(CC)C(=O)c1ccc(OCC(=O)O)c(Cl)c1Cl [Ethacrynic acid]
growth yield (40 h): 84.98 ± 0.16%
growth yield (72 h): 85 ± 1.5%

O=C1NCCN1c1ncc([N+](=O)[O-])s1 [Niridazole]
growth yield (40 h): 95%
growth yield (72 h): 93.8%

C1N2CN3CN1CN(C2)C3 [Methenamine]
growth yield (40 h): 102.61 ± 2.2e-14%
growth yield (72 h): 100.2 ± 0.52%

CCCCCN(C)CCC(O)(P(=O)(O)O)P(=O)(O)O [Ibandronate sodium]
growth yield (40 h): 102.9 ± 0.64%
growth yield (72 h): 105 ± 1.4%

CNc1ncnc2c1ncn2[C@@H]1O[C@H](CO)[C@@H](O)[C@H]1O [N6-methyladenosine]
growth yield (40 h): 103 ± 4%
growth yield (72 h): 104 ± 1.8%

OCC(O)CN1CCN(c2ccccc2)CC1 (racemic) [Dropropizine (R,S)]
growth yield (40 h): 101 ± 1.6%
growth yield (72 h): 101.7 ± 0.63%

CC(C)(C)C(=O)OCOC(=O)[C@@H]1N2C(=O)[C@@H](/N=C/N3CCCCCC3)[C@H]2SC1(C)C [Pivmecillinam hydrochloride]
growth yield (40 h): 101 ± 2.4%
growth yield (72 h): 96.07 ± 0.21%

C[C@@H](O)[C@H]1C(=O)N2C(C(=O)O)=C(SCCNC=N)C[C@H]12 [Imipenem]
growth yield (40 h): 103 ± 2.2%
growth yield (72 h): 104 ± 2.2%

c1ccc2c(c1)CCCC2C1=NCCN1 (configuration not stated) [Tetrahydrozoline hydrochloride]
growth yield (40 h): 96.4 ± 3.6%
growth yield (72 h): 96.3 ± 2.3%

COc1ccc(CC(C)NCC(O)c2ccc(O)c(NC=O)c2)cc1 (configuration not stated) [Formoterol fumarate]
growth yield (40 h): 96.3 ± 1.6%
growth yield (72 h): 93.34 ± 0.84%

CCOC(=O)N1CCC(=C2c3ccc(Cl)cc3CCc3cccnc32)CC1 [Loratadine]
growth yield (40 h): 19.2 ± 12%
growth yield (72 h): 73.6%

CC(=O)[C@@]12O[C@](C)(c3ccccc3)O[C@@H]1C[C@H]1[C@@H]3CCC4=CC(=O)CC[C@]4(C)[C@H]3CC[C@@]12C [Algestone acetophenide]
growth yield (40 h): 111 ± 8.9%
growth yield (72 h): 108 ± 6.3%

COCCCC/C(=N\OCCN)c1ccc(C(F)(F)F)cc1 [Fluvoxamine maleate]
growth yield (40 h): 103 ± 2.9%
growth yield (72 h): 100 ± 1.1%

C[C@]12CCC(=O)C=C1CC[C@@H]1[C@@H]2C(=O)C[C@@]2(C)[C@H]1CC[C@]2(O)C(=O)CO [Cortisone]
growth yield (40 h): 98.48 ± 0.95%
growth yield (72 h): 103.3 ± 0.1%

COC(=O)[C@H](c1ccccc1Cl)N1CCc2sccc2C1 [Clopidogrel]
growth yield (40 h): 76.9 ± 1.6%
growth yield (72 h): 82 ± 1.1%

C[C@H](N[C@@H](CCc1ccccc1)C(=O)O)C(=O)N1CCC[C@H]1C(=O)O [Enalaprilat dihydrate]
growth yield (40 h): 100 ± 2.1%
growth yield (72 h): 100 ± 2%

CN(C)[C@@H]1C(O)=C(C(N)=O)C(=O)[C@@]2(O)C(O)=C3C(=O)c4c(O)cccc4[C@@](C)(O)[C@H]3C[C@@H]12 [Tetracycline hydrochloride]
growth yield (40 h): 95.9%
growth yield (72 h): 76.2 ± 15%

Cc1ccc(N(CC2=NCCN2)c2cccc(O)c2)cc1 [Phentolamine hydrochloride]
growth yield (40 h): 99.9 ± 2.4%
growth yield (72 h): 100 ± 2%

CCc1ccc(CCOc2ccc(CC3SC(=O)NC3=O)cc2)nc1 (configuration not stated) [Pioglitazone]
growth yield (40 h): 96.4 ± 1.1%
growth yield (72 h): 98.165 ± 1.4e-14%

Cc1c(Cl)cccc1Nc1ccccc1C(=O)O [Tolfenamic acid]
growth yield (40 h): 88.79 ± 0.16%
growth yield (72 h): 94.49 ± 0.32%

CCCSc1ccc2[nH]c(NC(=O)OC)nc2c1 [Albendazole]
growth yield (40 h): 73.2 ± 3.6%
growth yield (72 h): 84.3 ± 5.5%

CO[C@H]1/C=C/O[C@@]2(C)Oc3c(C)c(O)c4c(O)c(c(/C=N/N5CCN(C)CC5)c(O)c4c3C2=O)NC(=O)/C(C)=C\C=C\[C@H](C)[C@H](O)[C@@H](C)[C@@H](O)[C@@H](C)[C@H](OC(C)=O)[C@@H]1C [Rifampicin]
growth yield (40 h): 85.8 ± 7.3%
growth yield (72 h): 90.1 ± 3%

CC[C@H]1OC(=O)[C@H](C)[C@@H](O[C@H]2C[C@@](C)(OC)[C@@H](O)[C@H](C)O2)[C@H](C)[C@@H](O[C@@H]2O[C@H](C)C[C@H](N(C)C)[C@H]2O)[C@](C)(O)C[C@@H](C)C(=O)[C@H](C)[C@@H](O)[C@]1(C)O [Erythromycin]
growth yield (40 h): 60 ± 2.9%
growth yield (72 h): 58.1 ± 1.9%

c1ccc(CC2=NCCN2)cc1 [Tolazoline hydrochloride]
growth yield (40 h): 102 ± 8.7%
growth yield (72 h): 100 ± 5.3%

CC(C)(Oc1ccc(CCNC(=O)c2ccc(Cl)cc2)cc1)C(=O)O [Bezafibrate]
growth yield (40 h): 101 ± 3.6%
growth yield (72 h): 104 ± 3.2%

OCCN1CCN(CCCN2c3ccccc3Sc3ccc(C(F)(F)F)cc32)CC1 [Fluphenazine dihydrochloride]
growth yield (40 h): 44 ± 6.2%
growth yield (72 h): 90.3 ± 8.9%

Clc1ccc2c(c1)C(N1CCNCC1)=Nc1ccccc1O2 [Amoxapine]
growth yield (40 h): 98 ± 3%
growth yield (72 h): 102.05 ± 0.1%

O=C1c2ccccc2C(=O)C1c1ccccc1 [Phenindione]
growth yield (40 h): 97.5 ± 4.5%
growth yield (72 h): 101 ± 3.1%

O=C(O)CCc1nc(-c2ccccc2)c(-c2ccccc2)o1 [Oxaprozin]
growth yield (40 h): 92 ± 10%
growth yield (72 h): 90.8 ± 7.8%

COC(=O)C1=C(C)NC(C)=C(C(=O)OC)C1c1ccccc1[N+](=O)[O-] [Nifedipine]
growth yield (40 h): 44.2 ± 1.3%
growth yield (72 h): 53.1 ± 1.1%

Clc1ccccc1CN1CCc2sccc2C1 [Ticlopidine hydrochloride]
growth yield (40 h): 101 ± 5.1%
growth yield (72 h): 102 ± 3%

CCN(CC)CCOC(=O)C1(c2ccc([N+](=O)[O-])cc2)CCCC1 [Nitrocaramiphen hydrochloride]
growth yield (40 h): 101%
growth yield (72 h): 103.3 ± 0.52%

Nc1ccc(O)c(C(=O)O)c1 [Mesalamine]
growth yield (40 h): 101 ± 0.32%
growth yield (72 h): 98.58 ± 0.63%

Cc1cc(C(C)(C)CC(C)(C)C)ccc1OCCOCC[N+](C)(C)Cc1ccccc1 [Methyl benzethonium chloride]
growth yield (40 h): 1.43 ± 0.79%
growth yield (72 h): 0.944 ± 0.52%

Cc1cc(NC(=O)C2=C(O)c3ccccc3S(=O)(=O)N2C)no1 [Isoxicam]
growth yield (40 h): 92 ± 6.8%
growth yield (72 h): 92.6 ± 7.2%

CO[C@@]1(NC(=O)C2SC(=C(C(N)=O)C(=O)O)S2)C(=O)N2C(C(=O)O)=C(CSc3nnnn3C)CS[C@@H]21 (some centres not stated) [Cefotetan]
growth yield (40 h): 97.4 ± 3.6%
growth yield (72 h): 99 ± 3.1%

CN(C)CCCN1c2ccccc2CCc2ccc(Cl)cc21 [Clomipramine hydrochloride]
growth yield (40 h): 94.5 ± 4%
growth yield (72 h): 103 ± 3.9%

C#C[C@]1(OC(C)=O)CC[C@H]2[C@@H]3CCC4=C[C@@H](OC(C)=O)CC[C@@H]4[C@H]3CC[C@@]21C [Ethynodiol diacetate]
growth yield (40 h): 84.8%
growth yield (72 h): 89 ± 0.94%

Nc1ccc(S(=O)(=O)Nc2ncccn2)cc1 [Sulfadiazine]
growth yield (40 h): 97.5 ± 4.5%
growth yield (72 h): 97.6 ± 6.2%

CO[C@@]1(NC(=O)C(C(=O)O)c2ccc(O)cc2)C(=O)N2C(C(=O)O)=C(CSc3nnnn3C)CO[C@@H]21 (some centres not stated) [Moxalactam disodium salt]
growth yield (40 h): 96.1 ± 0.16%
growth yield (72 h): 92.71 ± 0.63%

C#C[C@]1(O)CC[C@H]2[C@@H]3CCC4=CC(=O)CC[C@@H]4[C@H]3CC[C@@]21C [Norethindrone]
growth yield (40 h): 85.5 ± 2.9%
growth yield (72 h): 85.9 ± 3.9%

CC(=O)O[C@]1(C(C)=O)CC[C@H]2[C@@H]3C=C(C)C4=CC(=O)CC[C@@H]4[C@H]3CC[C@@]21C [Nomegestrol acetate]
growth yield (40 h): 96.7 ± 5.2%
growth yield (72 h): 95.4 ± 5.9%

NS(=O)(=O)c1cc2c(cc1Cl)N=C(CSCc1ccccc1)NS2(=O)=O [Benzthiazide]
growth yield (40 h): 96.3 ± 2.9%
growth yield (72 h): 96.9 ± 4.8%

O=C1C(CC[S+]([O-])c2ccccc2)C(=O)N(c2ccccc2)N1c1ccccc1 (configuration not stated) [Sulfinpyrazone]
growth yield (40 h): 102 ± 1.1%
growth yield (72 h): 106 ± 2.1%

CC(=O)Oc1cc(C(F)(F)F)ccc1C(=O)O [Triflusal]
growth yield (40 h): 94.5 ± 2.4%
growth yield (72 h): 91.77 ± 0.32%

O=c1[nH]cc(F)c(=O)[nH]1 [5-fluorouracil]
growth yield (40 h): 54.3 ± 5.7%
growth yield (72 h): 61.5 ± 4.6%

C[C@]12C=CC(=O)C=C1CC[C@@H]1[C@@H]2[C@@H](O)C[C@@]2(C)[C@H]1CC[C@]2(O)C(=O)CO [Prednisolone]
growth yield (40 h): 97.21 ± 0.95%
growth yield (72 h): 102.9 ± 0.52%

CC(C)Cc1ccc([C@H](C)C(=O)O)cc1 [S-(+)-ibuprofen]
growth yield (40 h): 101 ± 1.4%
growth yield (72 h): 99.7 ± 3.2%

CS(=O)(=O)c1ccc([C@@H](O)[C@@H](CO)NC(=O)C(Cl)Cl)cc1 [Thiamphenicol]
growth yield (40 h): 102 ± 4.9%
growth yield (72 h): 102 ± 4.2%

O=C(O)Cc1ccccc1Nc1c(Cl)cccc1Cl [Diclofenac sodium]
growth yield (40 h): 67.5 ± 3.6%
growth yield (72 h): 81 ± 4.8%

C[C@@H](c1ncncc1F)[C@](O)(Cn1cncn1)c1ccc(F)cc1F [Voriconazole]
growth yield (40 h): 3.02 ± 1.4%
growth yield (72 h): 2.41 ± 0.94%

CN1CCN(CCCN2c3ccccc3Sc3ccc(S(=O)(=O)N(C)C)cc32)CC1 [Thioproperazine dimesylate]
growth yield (40 h): 64.5 ± 11%
growth yield (72 h): 90.7 ± 4.1%

CCOC(=O)Nc1ccc2c(c1)N(C(=O)CCN1CCOCC1)c1ccccc1S2 [Moricizine hydrochloride]
growth yield (40 h): 111 ± 12%
growth yield (72 h): 106 ± 9.9%

COC(=O)[C@H]1[C@H]2C[C@@H]3c4[nH]c5cc(OC)ccc5c4CCN3C[C@H]2C[C@@H](OC(=O)c2cc(OC)c(OC)c(OC)c2)[C@@H]1OC [Reserpine]
growth yield (40 h): 107 ± 5.4%
growth yield (72 h): 107 ± 2.8%
